Experimental data reported in PubChem BioAssay AID1468 (National Center for Advancing Translational Sciences (NCATS), 2008).
Hit rate of the full screen: of about 280,000 compounds, about 1,100 (0.39%) were called active. The inconclusive results got no clear call from the source; some entries with a clear call stand among them for comparison. Calls come from the whole dose curve; as a rule, active = well fitted inhibition curve with a large enough effect; inconclusive = small, poorly fitted or top-dose-only effect, or effect the other way; inactive = flat fitted curve, though single readings scatter. Where the call is inconclusive, the potency comes from a doubtful curve fit.

The compounds below were run against Microtubule-associated protein tau (Homo sapiens) (UniProt P10636) (assay: qHTS for Inhibitors of Tau Fibril Formation, Fluorescence Polarization). Details: K18 P301L tau heparin fibrillization, Alexa594 FP, 6 h; series mostly up to 57.7 µM; activity, negative = inhibition: at the top concentration.
UniProt P10636, sequence (P10636 whole entry, looked up): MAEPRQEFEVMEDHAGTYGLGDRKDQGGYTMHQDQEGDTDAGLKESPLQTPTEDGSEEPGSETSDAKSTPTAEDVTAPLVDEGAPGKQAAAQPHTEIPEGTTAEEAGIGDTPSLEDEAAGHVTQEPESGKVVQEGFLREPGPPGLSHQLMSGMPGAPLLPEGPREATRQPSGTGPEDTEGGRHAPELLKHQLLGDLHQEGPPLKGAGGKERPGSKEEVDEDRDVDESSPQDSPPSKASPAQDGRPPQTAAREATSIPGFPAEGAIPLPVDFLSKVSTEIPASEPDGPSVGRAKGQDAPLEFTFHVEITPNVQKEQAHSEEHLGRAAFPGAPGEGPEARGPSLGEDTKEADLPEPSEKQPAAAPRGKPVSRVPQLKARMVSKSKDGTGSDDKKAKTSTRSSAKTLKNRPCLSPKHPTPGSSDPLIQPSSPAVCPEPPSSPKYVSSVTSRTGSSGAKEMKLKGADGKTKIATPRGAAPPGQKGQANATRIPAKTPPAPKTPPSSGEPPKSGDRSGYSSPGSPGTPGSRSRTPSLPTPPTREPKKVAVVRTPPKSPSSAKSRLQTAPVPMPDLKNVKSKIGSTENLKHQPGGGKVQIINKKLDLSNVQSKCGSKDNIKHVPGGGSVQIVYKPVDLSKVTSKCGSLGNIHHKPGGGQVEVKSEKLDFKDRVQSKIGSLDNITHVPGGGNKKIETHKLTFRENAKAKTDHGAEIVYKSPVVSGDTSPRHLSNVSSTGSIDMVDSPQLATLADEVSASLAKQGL
Summary of the method: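 Quantitative HTS format: compounds meet 15 uM recombinant K18 P301L tau and Alexa 594-tau tracer in 100 mM sodium acetate pH 7; 20 uM heparin triggers fibrillization at 37 C over 6 hr; FP gives the signal.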
% is set by controls: 0 for no effect and ±100 for the full control effect; potency is the fitted concentration of half-maximal effect; tags give direction and shape of the fitted curve.
Note: nearly all actives have a fitted effect of over 55% in size.

Potency, active:
Cc1ccccc1OCCSc1nc2ccc(NC(=O)c3cccs3)cc2s1 10 µM

Potency, inconclusive:
CCN1/C(=C/c2ccc3cc(C)ccc3[n+]2CC)Sc2ccccc21 28.2 µM [inhibitor, single point]
CC(=O)Nc1ccc(S(=O)(=O)Oc2ccc3c(c2)C(C)=CC(C)(C)N3)cc1 0.178 µM [activator, single point]
CCOC(=O)c1cnc2ccc(C)cc2c1Nc1ccc(N(CC)CC)cc1 31.6 µM [inhibitor, single point]
CCOC(=O)c1cc(-c2ccc(OC)cc2)n(CCC(=O)NC2CCCCC2)c1C 15.8 µM [activator, single point]
O=c1[nH]c2ccc(NCc3ccc(-c4ccccc4)o3)cc2[nH]1 20 µM [activator, partial curve]
CC(NO)/C(=N\O)c1cccs1 (stereo unspecified) 2.24 µM [inhibitor, single point]
CC1=C(C(=O)Nc2ccccc2)C(c2cccc(Cl)c2)n2nc(SCC(=O)c3ccc(C)cc3)nc2N1 (stereo unspecified) 39.8 µM [inhibitor, single point]
COc1ccc(-c2cc(NCCc3ccncc3)n3ncnc3n2)cc1 3.55 µM [inhibitor, partial curve]
CCOC(=O)c1c(N)sc(C)c1-c1ccccc1 6.31 µM [activator, single point]
Cc1ccc(C(C(=O)NCc2ccco2)N(Cc2ccco2)C(=O)CNC(=O)c2ccco2)cc1 (stereo unspecified) 15.8 µM [inhibitor, partial curve]
O=C(Nc1ccc2oc(-c3ccc4ccccc4c3)nc2c1)c1ccc(Cl)c(Cl)c1 10 µM [inhibitor, partial curve]
Cc1cccc(NC(=O)CN(c2ccc(C(C)C)cc2)S(=O)(=O)c2c(C)nn(C)c2C)n1 25.1 µM [activator, single point]
COC(=O)c1cc(Cl)ccc1NC(=O)CSc1ncc(S(=O)(=O)c2ccc(Br)cc2)c(=O)[nH]1 39.8 µM [inhibitor, single point]
O=C(NCCc1ccc(Cl)cc1)c1cc(-c2ccc(Cl)cc2)n[nH]1 17.8 µM [inhibitor, partial curve]
CCOc1ccccc1C(=O)OCC(=O)Nc1ccc(N2CCCCC2)cc1 7.94 µM [activator, full curve, poor fit]
Cc1ccc(C2=NN=C(NC(=O)CSc3nncn3C)SC2)cc1 22.4 µM [inhibitor, partial curve]
Cn1c(=O)c2c(nc(NCCc3ccccc3)n2Cc2ccc(Cl)cc2)n(C)c1=O 0.631 µM [activator, full curve, poor fit]
Cc1ccc(NC(=O)CCCn2c(=O)c3cccn3c3cccnc32)cc1C 8.91 µM [inhibitor, single point]
COc1ccc(C2N=C(c3ccccc3)NC(c3ccccc3)=N2)cc1 15.8 µM [inhibitor, partial curve]
COc1ccc2c(c1)c(/C=N/Nc1nc3ccccc3[nH]1)c(C)n2C 8.91 µM [activator, partial curve]
O=C(Nc1ccc(Nc2ccccc2)cc1)C(Cl)Cl 14.1 µM [activator, partial curve]
Cc1ccc(NC(=O)Cn2cc(C(=O)C3CCCCC3)c3ccccc32)cc1 25.1 µM [inhibitor, partial curve]
O=S(=O)(/N=S1/CC=CCN1S(=O)(=O)c1ccccc1)c1ccccc1 (stereo unspecified) 7.08 µM [inhibitor, single point]
CC(=O)c1ccc(NC(=S)NCc2ccc(Cl)cc2Cl)cc1 25.1 µM [inhibitor, single point]
CC1=CC(=O)C=C(C)C1=NOc1ccccc1[N+](=O)[O-] 44.7 µM [inhibitor, single point]
Cc1ccc(C(=O)Nc2ccccc2)cc1S(=O)(=O)Nc1ccccc1 28.2 µM [inhibitor, partial curve]
Cc1ccc(NC(=O)C2CCC(CNS(=O)(=O)c3cccc4nsnc34)CC2)c(Cl)c1 (stereo unspecified) 15.8 µM [inhibitor, single point]
Nc1nnnn1/N=C/C(Br)=C/c1ccccc1 7.94 µM [inhibitor, full curve]
CC1CC1C(=O)Nc1ccc(-c2ccccc2)cc1 (stereo unspecified) 44.7 µM [inhibitor, single point]
CC(=O)OCC1OC(Oc2cc(OC(C)=O)c3c(=O)cc(-c4ccc(OC(C)=O)c(OC(C)=O)c4)oc3c2)C(OC(C)=O)C(OC(C)=O)C1OC(C)=O (stereo unspecified) 44.7 µM [inhibitor, single point]
COc1ccccc1NC(=O)Cn1c(=O)n(CC(=O)NCc2ccccc2Cl)c(=O)c2sccc21 5.62 µM [inhibitor, partial curve]
COc1ccc(CCNc2ncnc3c2[nH]c2cc(OC)c(OC)cc23)cc1OC 25.1 µM [activator, partial curve]
O=C(CSc1nccc(=O)[nH]1)NCc1ccc(Cl)cc1 0.708 µM [inhibitor, full curve, poor fit]
O=C(NNC(=S)Nc1ccc(Cl)c(Cl)c1)c1ccccn1 8.91 µM [activator, partial curve, poor fit]
O=C1Nc2ccc(F)cc2C12Nc1ccccc1-c1nnc(SCc3ccccc3)nc1O2 (stereo unspecified) 25.1 µM [inhibitor, partial curve]
COc1cc(C(=O)COC(=O)Cc2cnc3sccn23)cc(OC)c1OC 7.94 µM [inhibitor, single point]
O=C1NN(c2ccccc2)C(=O)/C1=C/c1ccc(Sc2cccc3ccccc23)o1 20 µM [inhibitor, partial curve]
CC(=O)[C@@H]1[C@H]2[C@H](C(=O)[C@H]3OC[C@@H]2O3)[C@H]2C=Cc3ccccc3N21 31.6 µM [inhibitor, partial curve]
Cc1ccc2c(Cl)c(C(=O)N/N=C/c3cccn3C)sc2c1 28.2 µM [inhibitor, single point]
COc1ccccc1NC(=O)c1cc2c(C)nn(-c3ccccc3)c2s1 15.8 µM [inhibitor, partial curve]
Cc1c(C)n(CC(O)CNc2ccccc2)c2ccccc12 (stereo unspecified) 31.6 µM [activator, partial curve]
Cc1ccc(-n2nnnc2C(Cl)c2nnnn2-c2ccc(C)cc2)cc1 22.4 µM [inhibitor, partial curve]
Cc1ccc(NC(=O)CCc2nnc(SCC(=O)Nc3ccccc3C)n2C)cc1Cl 39.8 µM [inhibitor, single point]
Cc1ccccc1C(=O)Nc1c(C(=O)Nc2cccc(F)c2)oc2ccccc12 4.47 µM [inhibitor, partial curve]
CCOc1ccc(N2C(=O)C(CC(=O)Nc3ccc(F)cc3)N(Cc3ccccn3)C2=S)cc1 (stereo unspecified) 39.8 µM [inhibitor, single point]
c1ccc(Cn2c(NCc3ccncc3)nc3ccccc32)cc1 0.1 µM [inhibitor, partial curve]
COc1ccccc1NC(=O)c1c(Nc2ccccc2C)sc(C(=O)Nc2cccc(Cl)c2)c1N 39.8 µM [inhibitor, single point]
CCn1ccc2c(OCC(=O)Nc3ccc(C(C)=O)cc3)cccc2c1=O 0.282 µM [inhibitor, partial curve]
CCN(CC)c1ccc(/C=N/NC(=S)NCc2ccc(OC)cc2)cc1 20 µM [activator, partial curve]

activity, negative = inhibition, inactive:
COc1cccc(C2NC(=O)NC(O)(C(F)(F)F)C2C(=O)c2cccnc2)c1OC (stereo unspecified) 0.149%
Cc1cccc(OCC(=O)Nc2ccccc2C(=O)OCc2cc(=O)n3nc(C)sc3n2)c1 4.71%
O=C(CSc1nc(-c2ccccc2)nc2c1Cc1ccccc1O2)N1CCCCC1 -17%
Cc1cc(C)c[n+](C2=C([O-])c3ccccc3C(=O)/C2=N\S(=O)(=O)c2cccs2)c1 7.09%
O=C(CSC1=NCCS1)Nc1cccc2ccccc12 -3.33%
Cc1ccc(Nc2c(-c3ccc(C)s3)nc3ncccn23)cc1 3.03%
COC(=O)c1cc(NCc2ccc3c(c2)OCO3)ccc1N1CCOCC1 1.4%
CCc1ccccc1NC(=O)[C@@H](c1ccccc1)N1Cc2ccccc2C1=O -2.37%
CCCn1c(-c2ccc(F)cc2)nc2c(NCCN(CC)CC)nc(C)nc21 -3.21%
COC(=O)c1ccc2c(c1)NC(=O)C(N1CCCCC1)S2 (stereo unspecified) -6.01%
CCn1nc(-c2ccccc2)c(-c2ccccc2)c(C(=O)Nc2ccc(NC(C)=O)cc2)c1=O -1.53%
COc1ccc(CCNC(=O)c2ccc(CNS(=O)(=O)c3ccc(C(C)(C)C)cc3)cc2)cc1OC 0.622%
Cc1ccc(NC(=S)NNC(=O)c2ccco2)cc1 2.83%
CCOC(=O)c1c(C)[nH]c(N=Nc2ccc(C)cc2)c1C 22.1%
O=C1C(=O)c2ccccc2C(O)=C1c1ccccc1F -8.59%
CC(/C=N/NC(=O)c1cccc([N+](=O)[O-])c1)=C\c1ccccc1 5.62%
